Each structure is given as a SMILES string. Screen size: about 52,000 compounds; about 4,300 (8.3%) were called active. Rule as the data show it: active = survival mostly below about 52% (no sharp cut-off); inactive = mostly above about 56%. The list shows a part of the results.

The experiment concerns DeltatarO mutant. Kind of experiment: growth inhibition of S. aureus wild type versus tarO mutant, primary screen, teichoic acid synthesis inhibitors, RN4220, OD600 (AID 463173). As to conditions: OD600, 18 h, active compounds read low, screened at 18.75 µg/mL (by protocol).
For `CCc1ccccc1NC(=O)c1sc(-n2nc(C)c(Cc3ccc4c(c3)OCO4)c2C)nc1C`, the survival was inactive: 97%.

For the compound `O=C(Cn1c2ncccc2c(=O)n1-c1ccccc1)Nc1ccc(Cl)cc1C(F)(F)F`, the survival is inactive: 90%.

As to `COCc1cc(C)nc2sc3c(c12)NC(c1ccc(O)cc1)N(c1ccc(C)cc1)C3=O` (stereo not given), the survival was inactive: 60%.

For `O=C(OCc1cccc(C(F)(F)F)c1)c1ccc(-c2nnn(Cc3ccc(F)cc3)n2)cc1`, the survival is inactive: 71%.

As to `CCn1c(=N)c(C(=O)NC2CCCC2)cc2c(=O)n3ccccc3nc21`, the survival is inactive: 49%.

In the case of `Cc1nn(C(=O)c2ccccc2)c(C)c1S(=O)(=O)N1CCCCCC1`, the survival is inactive: 89%.

Take `CCN(C(=O)c1cn(-c2ccc(OC)cc2)c(=O)c2ccccc12)c1cccc(Cl)c1`: the survival is inactive: 103%.

Turning to `O=C(CSC1=Nc2ccccc2N=C(c2ccc(F)cc2)C1)NCc1ccccc1Cl`, the survival is inactive: 95%.

Regarding `CCCCOc1ccc(CNC(=O)Cc2ccc(NC(=O)N3CCSc4ncccc43)cc2)cc1`, the survival is inactive: 119%.

Turning to `CCNc1oc(-c2ccc(COc3ccc(Cl)cc3)o2)nc1C#N`, the survival was inactive: 82%.

Turning to `Cc1nn(-c2ccc(N3CCOCC3)nn2)c(C)c1CCC(=O)NCc1ccccc1F`, the survival was inactive: 85%.

For `Cc1cc(N(C(=O)Cn2nnc3ccccc32)C(C(=O)NCC2CCCO2)c2ccc(F)cc2)ccc1-n1cnnn1` (stereo not given), the survival was inactive: 59%.

As to `O=C(O)CC1NC(=S)N(Cc2ccccc2)C1=O` (stereo not given), the survival is inactive: 91%.

For `CCOc1ccc(CNC(=O)c2sc3ncnc(N(C)C4CCCCC4)c3c2C)cc1`, the survival was inactive: 98%.

`COC(=O)c1cccc(Nc2nn3c(=O)c4cc5c(cc4nc3s2)OCO5)c1`: the survival was inactive: 63%.

With `COc1ccc(S(=O)(=O)NCC(c2ccc(N(C)C)cc2)N2CCOCC2)cc1` (stereo not given), the survival was inactive: 69%.

Turning to `COc1ccc(-c2[nH]c3ccccc3c2SCCNC(=O)c2ccc(S(=O)(=O)N(C)C)cc2)cc1`, the survival was inactive: 67%.

For `Cc1ccc2[nH]c3c(=O)n(CC(=O)NC(C)C)ncc3c2c1`, the survival was active: 6%.

In the case of `CCOC(=O)c1ccc(NC(=O)CCc2c(C)nc3c(-c4ccc(F)cc4)c(C)nn3c2C)cc1`, the survival is inactive: 61%.

As to `Cc1ccccc1C(=O)Nc1ccc(C(=O)OCc2cc(=O)n3nc(C(C)C)sc3n2)cc1`, the survival was inactive: 91%.

On to `O=C1CC(c2ccc3c(c2)OCO3)CC2=C1C(c1ccncc1)Nc1ccccc1N2` (stereo not given), for which the survival is inactive: 104%.

Turning to `COc1ccc(NC(=O)C2Cc3ccccc3N2C(=O)c2ccccc2)cc1OC` (stereo not given), the survival is inactive: 98%.

Turning to `Cc1ccc(-c2onc(C)c2C)cc1S(=O)(=O)Nc1ccc(Cl)cn1`, the survival is inactive: 97%.

Take `COc1ccc(CNC(=O)c2cc3cccc4c3n2CC(C)S4)c(OC)c1` (stereo not given): the survival was inactive: 122%.

Regarding `O=C(CSc1ncc(CO)n1Cc1ccc(Cl)cc1)NCc1ccc(F)cc1`, the survival is inactive: 55%.

With `COc1ccc(C(=O)Oc2cc(-c3ccc4c(c3)OCO4)cc(=O)c3c(C)oc(C)c23)cc1`, the survival is inactive: 113%.

`Cc1ccc(Cl)cc1NC(=O)CSc1nc2c(c(=O)[nH]1)CN(Cc1ccccc1)CC2`: the survival was inactive: 72%.

With `COc1ccc(S(=O)(=O)N2CCN(CC(=O)Nc3ccc(Cl)c(C(F)(F)F)c3)CC2)cc1`, the survival is inactive: 71%.

Turning to `O=C(CC12CC3CC(CC(C3)C1)C2)N1CCCOC1`, the survival is inactive: 60%.

In the case of `O=S(=O)(Nc1cc(Sc2ncn[nH]2)c(O)c2ccccc12)c1cccs1`, the survival is inactive: 91%.

Take `COc1ccc(-c2ccc(NS(=O)(=O)c3cccc(Cl)c3)cc2)nn1`: the survival is inactive: 89%.

On to `Cc1ccccc1CNC(=O)c1ccc(Cn2c(SCc3cccc(F)c3)nc3cccnc32)cc1`, for which the survival was inactive: 89%.

With `CCOC(=O)c1nc(Nc2ccc(C(=O)OCC(C)C)cc2)c2ccccc2n1`, the survival is inactive: 61%.

For the compound `O=C1CSC(c2ccccc2)N1Nc1nc(N2CCOCC2)nc(N2CCOCC2)n1` (stereo not given), the survival was inactive: 101%.

For the compound `O=C(CCc1cn(Cc2ccccc2F)c2ccccc12)NCc1ccc(Cl)cc1`, the survival was inactive: 83%.

Regarding `CCOc1ccc(NC(=O)C2CCN(S(=O)(=O)c3cc(-c4noc(C)n4)ccc3C)CC2)cc1`, the survival was inactive: 130%.

With `Cc1ccsc1/C=N/NC(=O)CO`, the survival is inactive: 105%.

On to `O=C(O)CCC(=O)NC(c1ccccc1)c1ccccc1`, for which the survival is inactive: 96%.

Regarding `CSc1cccc(-c2nnc(NC(=O)c3ccc4c(c3)OCCO4)o2)c1`, the survival is inactive: 72%.

On to `CN(Cc1ccccc1)C(=O)COc1ccc(S(=O)(=O)N2CCCC2)cc1`, for which the survival is inactive: 89%.

For the compound `CC(C)CC(=O)NCc1nc2cccnc2n1Cc1ccccc1`, the survival was inactive: 78%.

Consider `Cc1ccc(-c2cc(C(F)(F)F)n3nc(-c4ccc(Cl)cc4)cc3n2)cc1`, for which the survival was inactive: 51%.

Regarding `COc1ccc(CNC(=O)C2CCN(Cc3nc(-c4ccc(OC)c(OC)c4)oc3C)CC2)cc1`, the survival is inactive: 119%.

In the case of `COc1cccc(OC)c1C(=O)Nc1nnc(C)s1`, the survival was inactive: 55%.

Regarding `Cc1ccc(N(CC(C)C)S(=O)(=O)c2nnc(NC(=O)c3ccco3)s2)cc1`, the survival is active: 44%.

Take `Cc1ccc2oc(C(=O)N(Cc3cccc(F)c3)C3CCS(=O)(=O)C3)c(C)c2c1` (stereo not given): the survival is inactive: 76%.

With `COc1ccc(N2CCN(C(=O)c3cc(S(=O)(=O)N4CCCCCC4)cn3C)CC2)cc1`, the survival is inactive: 80%.

On to `CN1CCN(CCCC(=O)c2ccc(F)cc2)CC1`, for which the survival is inactive: 101%.

In the case of `COc1cccc(NC(=O)N2CCC(n3c(C)nc4cccnc43)CC2)c1`, the survival is inactive: 83%.

As for `COc1cccc(Cn2c(=O)n(-c3ccc(C)c(F)c3)c(=O)c3sc4ccccc4c32)c1`, the survival is inactive: 72%.

With `CN(C)c1ccc(C(C(=O)NC2CCCCC2)N(Cc2ccco2)C(=O)Cc2c[nH]c3ccccc23)cc1` (stereo not given), the survival was inactive: 65%.

In the case of `OC(CN1CCCCC1)CN(c1ccccc1)c1ccccc1` (stereo not given), the survival is inactive: 83%.

Regarding `O=S(=O)(NCc1ccco1)c1ccc(Cl)cc1`, the survival is inactive: 77%.

Regarding `O=C(NC1CC(=O)N(c2cccc(F)c2)C1)c1ccc(S(=O)(=O)N2CCOCC2)cc1` (stereo not given), the survival was inactive: 76%.

For the compound `Cc1ccc(NC(=O)Cn2c(=O)oc3ccccc32)cc1Cl`, the survival is inactive: 81%.

On to `COc1ccccc1CN1COc2ccc3c(C)cc(=O)oc3c2C1`, for which the survival was inactive: 93%.

Regarding `CCOC(=O)c1ccc(NC(=O)CSc2ccc(-c3sc(C)nc3C)nn2)cc1`, the survival is active: 37%.

For `COc1cc(/C=C(\C#N)C(=O)Nc2ccc(S(N)(=O)=O)cc2)ccc1O`, the survival is inactive: 97%.

Regarding `COc1ccccc1N1CCN(C(=O)c2sc3nc4n(c(=O)c3c2C)CCC4)CC1`, the survival was inactive: 69%.

For `CC(=O)N1C(Nc2ccc(C)cc2)CCN1c1ccccc1` (stereo not given), the survival was inactive: 81%.

Turning to `CCOc1ccc(C(=O)c2cn(Cc3ccccc3OC)c3cc4c(cc3c2=O)OCCO4)cc1`, the survival is inactive: 83%.

For the compound `CCCCN(CC)CCNC(=O)c1cn(CCOC)c(=O)c2c1c1ccccc1n2C`, the survival is inactive: 88%.

On to `CCC(=O)N1CCc2cc(S(=O)(=O)CCC(=O)Nc3ccc(Cl)c(C(F)(F)F)c3)ccc21`, for which the survival was inactive: 76%.

For the compound `COc1ccc(NC(=O)CSc2oc(-c3cccs3)nc2S(=O)(=O)c2ccc(Br)cc2)c(OC)c1`, the survival is inactive: 57%.

`O=C(CN1CCC(NC(=O)C2CCCCC2)CC1)Nc1cccc(F)c1`: the survival is inactive: 102%.

As to `CC(=O)NS(=O)(=O)c1ccc(NC(=O)c2ccc(C)c(C)c2)cc1`, the survival is inactive: 98%.

In the case of `C(=N\C(/N=C/c1cccs1)c1cccs1)/c1cccs1`, the survival was inactive: 72%.

As to `Cc1nc2ccn(Cc3cccs3)c(=O)c2cc1C(=O)NCc1ccccc1`, the survival was inactive: 78%.

As to `CCc1nonc1NC(=O)c1oc2cc(C)c(Cl)cc2c1C`, the survival was inactive: 75%.

In the case of `Cc1cccc(Cn2cc(C(=O)c3ccccc3)c(=O)c3cc4c(cc32)OCO4)c1`, the survival was inactive: 96%.

Take `Cc1ccc(Nc2sc(C(=O)c3ccccc3)c(N)c2C(=O)NC(C)C)cc1`: the survival was inactive: 75%.

For `COc1ccc(C(=O)c2oc3ccccc3c2NC(=O)c2ccc(F)cc2)cc1`, the survival was inactive: 73%.

As to `O=C(c1cn(CCOc2ccccc2F)c2ccccc12)C1CCCCC1`, the survival was active: -2%.

In the case of `CCN(CC)C(=O)C(C(F)(F)F)C(F)(F)F`, the survival is inactive: 63%.

Turning to `Fc1ccccc1CSc1nnc2c(n1)[nH]c1ccccc12`, the survival was inactive: 85%.

On to `COc1ccc(Cn2ccc3nc(C)c(C(=O)N4CCN(c5ccccc5)CC4)cc3c2=O)cc1`, for which the survival is inactive: 85%.

On to `CCOC(=O)c1ccc(NC(=O)c2cn(-c3ccccc3)nc2-c2ccc(Br)cc2)cc1`, for which the survival was inactive: 70%.

`COCCNc1cn[nH]c(=O)c1Cl`: the survival was inactive: 88%.

Turning to `CC(=O)C1=C(c2ccc(Cl)c(Cl)c2)N(C(C)=O)n2c(C)nnc2S1`, the survival is inactive: 128%.

Turning to `Cc1cccc(C)c1NC(=O)c1oc2c(c1C)-c1nn(Cc3ccccc3)cc1CC2`, the survival is active: 23%.

For `CCCSCCCNC(=O)CN1C(=O)COc2ccc(S(=O)(=O)N3CCC(C)CC3)cc21`, the survival was inactive: 90%.

For `COc1cc(OC)c(N(C)C(=O)c2nn(C)c3c2CSc2ccccc2-3)cc1Cl`, the survival was inactive: 63%.

`CN1CCC(N(Cc2ccco2)C(=O)c2cc3sccc3n2Cc2ccccc2)CC1`: the survival was inactive: 63%.

`COc1ccc(NC(=O)N2CCN(C(=O)C(Cc3ccc(F)cc3)NC(C)=O)CC2)cc1` (stereo not given): the survival was inactive: 92%.

`O=S(=O)(c1ccc2[nH]c3c(c2c1)CCCCC3)N1CCN(c2ccccc2)CC1`: the survival was inactive: 91%.

For the compound `COc1cccc(CNC(=O)c2cc(-c3cccc(OC)c3)n[nH]2)c1`, the survival is inactive: 71%.

In the case of `O=C(CCn1cnc2ccccc2c1=O)NCc1ccccc1`, the survival is inactive: 109%.

Consider `Cc1ccc(N2CCN(C(=O)CCc3c(C)nc4c(c3C)c(=O)n(C)c(=O)n4C)CC2)c(C)c1`, for which the survival is inactive: 92%.

Consider `Cc1cc(C)c2oc(-c3cccc(NC(=O)c4ccco4)c3)nc2c1`, for which the survival was inactive: 87%.

Regarding `CCC1CCCCN1CCCNC(=O)CN1C(=O)CSc2ccc(S(=O)(=O)N3CCC(C)CC3)cc21` (stereo not given), the survival was inactive: 99%.

For the origin of these results see PubChem BioAssay AID463173 (ICCB-Longwood Screening Facility, Harvard Medical School, 2010).
